Laboratory results published in PubChem BioAssay (NCI).
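Tested at 5 concentrations; 48 h exposure; 96-well plates; endpoints linearly interpolated, else capped at highest concentration. The concentration for 50% growth inhibition is given as GI50.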 Certain results were filed several times, with different values. They are shown here; other results are not. The source may hold further records. The tests behind the records often covered other concentration ranges, not given here; some values may only mark the edge of a range.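 TGI: total growth inhibition.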

Assays:
Test in all cases: NCI anticancer screen, dose series, 48 h
HL-60(TB) leukemia = tested on: HL-60(TB) leukemia
M14 melanoma = tested on: M14 melanoma
OVCAR-8 ovarian = tested on: OVCAR-8 ovarian
SR leukemia = tested on: SR leukemia
SF-268 CNS = tested on: SF-268 CNS
SNB-75 CNS = tested on: SNB-75 CNS
SK-MEL-2 melanoma = tested on: SK-MEL-2 melanoma
U251 CNS = tested on: U251 CNS
A549 NSCLC = tested on: A549 NSCLC
HOP-62 NSCLC = tested on: HOP-62 NSCLC
LXFL 529 NSCLC = tested on: LXFL 529 NSCLC
K-562 leukemia = tested on: K-562 leukemia
SW-620 colon = tested on: SW-620 colon
HCT-15 colon = tested on: HCT-15 colon
RPMI-8226 leukemia = tested on: RPMI-8226 leukemia
CAKI-1 renal = tested on: CAKI-1 renal
UACC-62 melanoma = tested on: UACC-62 melanoma
UACC-257 melanoma = tested on: UACC-257 melanoma
NCI-H522 lung = tested on: NCI-H522 lung
OVCAR-4 ovarian = tested on: OVCAR-4 ovarian
OVCAR-5 ovarian = tested on: OVCAR-5 ovarian
NCI-H226 lung = tested on: NCI-H226 lung
MDA-MB-231 breast = tested on: MDA-MB-231 breast

## COc1ccc(CN[C@H]2CCc3cc(OC)c(OC)c(OC)c3-c3ccc(SC)c(=O)cc32)c(OC)c1OC
HL-60(TB) leukemia
  TGI: 68.6 nM and 4.43 µM
M14 melanoma
  TGI: 190 nM and 11.9 µM
OVCAR-8 ovarian
  TGI: 93.3 nM and 17.2 µM
SR leukemia
  TGI: 61.4 nM and > 100 µM
SF-268 CNS
  TGI: 225 nM and 24.1 µM
SNB-75 CNS
  TGI: 69.8 nM and > 100 µM
SK-MEL-2 melanoma
  TGI: 917 nM and 86.7 nM

## COc1cccc2c1C(=O)c1c(O)c3c(c(O)c1C2=O)C[C@@](O)(C(=O)CO)CC3OC1CC(NCCCCC(OC(C)=O)OC(C)=O)C(O)C(C)O1 (some centres undefined)
U251 CNS
  TGI: 4.52 nM and > 1 µM
A549 NSCLC
  TGI: 6.63 nM and > 1 µM
HOP-62 NSCLC
  TGI: 4.79 nM and 184 nM
LXFL 529 NSCLC
  TGI: 5.56 nM and > 1 µM

## COc1cc2cc(C(=O)N3C[C@H](CCl)c4c3cc(O)c3ccccc43)[nH]c2c(OC)c1OC
K-562 leukemia
  TGI: 788 nM and > 100 µM
M14 melanoma
  TGI: 429 nM and > 100 µM
SW-620 colon
  TGI: 2.12 µM and 51 nM
HCT-15 colon
  TGI: 7.06 µM and > 100 µM
RPMI-8226 leukemia
  TGI: 400 nM and 31.7 nM
CAKI-1 renal
  TGI: 3.26 µM and 23.5 nM
UACC-62 melanoma
  TGI: 244 nM and > 100 µM
UACC-257 melanoma
  TGI: 415 nM and > 100 µM
NCI-H522 lung
  TGI: 390 nM and 36.9 nM

## COC(=O)C12CC(NC(=O)c3csc([C@@H](C[C@H](C(C)C)N(C)C(=O)[C@@H](NC(=O)[C@H]4CCCCN4C)C(C)C)OC(C)=O)n3)(C1)C2
OVCAR-4 ovarian
  GI50: 181 nM and > 33.3 µM
OVCAR-5 ovarian
  GI50: 22.3 nM and 957 nM
NCI-H226 lung
  TGI: 431 nM and > 33.3 µM
MDA-MB-231 breast
  TGI: 86.2 nM and > 33.3 µM
